We go through 153 variants from a collection of fitness landscapes (doi:10.1126/science.1257360).

The labels stand for the following.
B1: PhoQ; a variant is named by its letters at X, in order, P23837 (parent)
chain: MKKLLRLFFPLSLRVRFLLATAAVVLVLSLAYGMVALIGYSVSFDKTTFRLLRGESNLFYTLAKWENNKLHVELPENIDKQSPTMTLIYDENGQLLWAQRDVPWLMKMIQPDWLKSNGFHEIEADVNDTSLLLSGDHSIQQQLQEVREDDDDAEMTHSVAVNVYPATSRMPKLTIVVVDTIPVELKSSYMVWSWFIYVLSANLLLVIPLLWVAAWWSLRPIEALAKEVRELEEHNRELLNPATTRELTSLVRNLNRLLKSERERYDKYRTTLTDLTHSLKTPLXXLQXXLRSLRSEKMSVSDAEPVMLEQISRISQQIGYYLHRASMRGGTLLSRELHPVAPLLDNLTSALNKVYQRKGVNISLDISPEISFVGEQNDFVEVMGNVLDNACKYCLEFVEISARQTDEHLYIVVEDDGPGIPLSKREVIFDRGQRVDTLRPGQGVGLAVAREITEQYEGKIVAGESMLGGARMEVIFGRQHSAPKDE

This is one part of the list.

Variants of B1 are the subject of this experiment. In words: enrichment ratio after two sorts for PhoP signalling (ratio (wild type AVST 3.29)); higher = more functional. Particulars: with PhoP (E. coli).
KTVS: the enrichment ratio was no more than 0.25. The same measure for YNDE: no more than 0.25; for VLGW: no more than 0.25. As for NAFY, the enrichment ratio was no more than 0.25. In the case of ELNQ, the enrichment ratio was no more than 0.25. Under GFSL stands no more than 0.25.

With FCFC, the enrichment ratio is no more than 0.25. Under PCQH stands no more than 0.25; under DLPN, no more than 0.25; under WRTF, no more than 0.25.

On to IKVG, for which the enrichment ratio is no more than 0.25. With KRCT, the enrichment ratio is no more than 0.25. Under INVM stands 1.19. Under RKQC stands no more than 0.25; under YDDF, no more than 0.25.

On to RKWV, for which the enrichment ratio is no more than 0.25. The same measure for EIPW: no more than 0.25; for PNEY: no more than 0.25.

With AATH, the enrichment ratio is 10.7. Under HETG stands 4.38; under KKNW, no more than 0.25. Under YGMD stands no more than 0.25; under SVVI, 0.732; under RLMV, no more than 0.25.

PYVP: the enrichment ratio was no more than 0.25. Turning to VEKD, the enrichment ratio is no more than 0.25. In the case of TGPY, the enrichment ratio is no more than 0.25. On to VSKH, for which the enrichment ratio was no more than 0.25. Under AQCK stands 29.5; under PASP, no more than 0.25. The same measure for KLWT: no more than 0.25; for FESE: no more than 0.25. Under DVQV stands no more than 0.25; under WEFI, no more than 0.25. As to PCAY, the enrichment ratio was no more than 0.25. The same measure for DKCK: no more than 0.25; for IKYG: no more than 0.25; for QRVK: no more than 0.25. The same measure for RHMI: no more than 0.25; for KATT: no more than 0.25.

Consider MFVH, for which the enrichment ratio is no more than 0.25. Consider VWKG, for which the enrichment ratio is no more than 0.25. The same measure for CSVT: 3.01; for WATW: no more than 0.25.

Turning to PVKH, the enrichment ratio is no more than 0.25. Under LFFY stands no more than 0.25. Under RVAR stands no more than 0.25. The same measure for TMFA: no more than 0.25. Consider EDLG, for which the enrichment ratio is no more than 0.25. Under SLPQ stands no more than 0.25; under PVPT, no more than 0.25. The same measure for PPTD: no more than 0.25. Regarding GYGM, the enrichment ratio was no more than 0.25. For LSCE, the enrichment ratio was no more than 0.25. TEHT: the enrichment ratio worked out at 27.2. In the case of LAIC, the enrichment ratio is no more than 0.25.

For NVSD, the enrichment ratio was no more than 0.25.

On to YEQM, for which the enrichment ratio was no more than 0.25.

For the variant HDTL, the enrichment ratio was no more than 0.25. For the variant TIAM, the enrichment ratio amounted to 9.93.

Turning to YLGH, the enrichment ratio is no more than 0.25. The same measure for VSTQ: no more than 0.25; for WMPT: no more than 0.25. The same measure for YKSV: no more than 0.25; for FRYY: no more than 0.25.

As for MRGY, the enrichment ratio is no more than 0.25. The same measure for HFEV: no more than 0.25; for PPPD: no more than 0.25; for TLPT: no more than 0.25. Under HEYA stands no more than 0.25. For SKMH, the enrichment ratio came out at 3.94. The same measure for SRAH: no more than 0.25. Under RNAF stands no more than 0.25; under SKWD, no more than 0.25; under WGMD, no more than 0.25. Turning to SGAF, the enrichment ratio stood at 1.22. The same measure for AIRP: no more than 0.25. Under LGEY stands no more than 0.25; under TQAI, 3.21. The same measure for EFHF: no more than 0.25.

Consider KVQN, for which the enrichment ratio was no more than 0.25. Under PYKC stands no more than 0.25. The same measure for TNPF: no more than 0.25; for ISSF: no more than 0.25; for PAWF: no more than 0.25. The same measure for YIKH: no more than 0.25; for MKWN: no more than 0.25. FVLT: the enrichment ratio was no more than 0.25. Under TSWG stands 16.6; under TWPW, no more than 0.25.

AKTL: the enrichment ratio is 12.5. The same measure for GQFG: no more than 0.25; for PQVP: no more than 0.25; for RMRW: no more than 0.25.

On to WRYI, for which the enrichment ratio is no more than 0.25.

Consider VGLA, for which the enrichment ratio worked out at 0.487. Under LEPG stands no more than 0.25; under HINF, no more than 0.25. Regarding MSTQ, the enrichment ratio was no more than 0.25.

For the variant TPQD, the enrichment ratio is no more than 0.25. Under KPYD stands no more than 0.25; under DKFC, no more than 0.25; under RVVL, no more than 0.25. Under PSHL stands no more than 0.25; under IEYF, no more than 0.25. As to EEMI, the enrichment ratio was no more than 0.25.

For the variant TEDF, the enrichment ratio is no more than 0.25.

With HTLQ, the enrichment ratio amounted to 1.59. Under DHHD stands no more than 0.25; under SPDQ, no more than 0.25; under FQGY, no more than 0.25. The same measure for VSIN: no more than 0.25; for LCIW: no more than 0.25; for ASWF: no more than 0.25. Turning to DDRR, the enrichment ratio is no more than 0.25. Under PTKR stands no more than 0.25; under MATV, no more than 0.25. The same measure for ADPK: no more than 0.25. Under KTNL stands no more than 0.25. NWES: the enrichment ratio is no more than 0.25. For the variant YCWF, the enrichment ratio was no more than 0.25. The same measure for LRNF: no more than 0.25. The same measure for PVWN: no more than 0.25; for PKYN: no more than 0.25. The same measure for VTIA: no more than 0.25; for SGRS: no more than 0.25. As to LYNI, the enrichment ratio was no more than 0.25. Under FTPC stands no more than 0.25; under YISC, 0.923; under GFWA, no more than 0.25.

With TWDA, the enrichment ratio was no more than 0.25. In the case of FNPV, the enrichment ratio is no more than 0.25.

For APHT, the enrichment ratio was no more than 0.25. Under LLGW stands no more than 0.25. Turning to KFRK, the enrichment ratio is no more than 0.25. Under TDHW stands no more than 0.25. Take GGLN: the enrichment ratio turned out to be 7.34. As to KVYR, the enrichment ratio is no more than 0.25. For SQSL, the enrichment ratio was 9.58.

As for YKAR, the enrichment ratio was no more than 0.25. For QPCY, the enrichment ratio is no more than 0.25. The same measure for RKWL: no more than 0.25; for NTAR: no more than 0.25. Under PIQI stands no more than 0.25; under IHQT, no more than 0.25. LLQM: the enrichment ratio is no more than 0.25. On to SLWW, for which the enrichment ratio was no more than 0.25.

For GHDE, the enrichment ratio was no more than 0.25. Under SPII stands no more than 0.25. Under HRPW stands no more than 0.25. The same measure for LPSM: no more than 0.25. Regarding QPPK, the enrichment ratio is no more than 0.25.

Turning to FQIY, the enrichment ratio was no more than 0.25.
